Consider 28 molecules from PubChem BioAssay AID1745853 (National Center for Advancing Translational Sciences (NCATS), 2022).

This is one part of the list. Shown are side measurements of this screen, not its main read-out; they come without a call.

What all share (test): Primary Screen for Target Class Profiling of Small Molecule Inhibitors of Methyltransferases
Experiment [1] has as its target Glycine N-methyltransferase (Homo sapiens) (UniProt Q14749). The conditions noted are these: purified enzyme, MTase-Glo SAH luminescence; measured here: GNMT inhibition; at 40 µM; stronger effect = lower value. The procedure, abridged: (§1)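 Each enzyme was reacted with SAM and its substrate, with compounds tested once at 40 uM; SAH formed was read by MTase-Glo luminescence.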

Experiment [2] addresses Guanidinoacetate N-methyltransferase (Homo sapiens) (UniProt Q14353). The settings on record: purified enzyme, MTase-Glo SAH luminescence; measured here: GAMT inhibition; at 40 µM; stronger effect = lower value. The procedure, abridged: as §1
Experiment [3] deals with Histamine N-methyltransferase (Homo sapiens) (UniProt P50135). The settings on record: purified enzyme, MTase-Glo SAH luminescence; measured here: HNMT inhibition; at 40 µM; stronger effect = lower value. The procedure, abridged:
as §1

The target of experiment [4] is Nicotinamide N-methyltransferase (Homo sapiens) (UniProt P40261). The settings on record: purified enzyme, MTase-Glo SAH luminescence; measured here: NNMT inhibition; at 40 µM; stronger effect = lower value. The procedure, abridged:
as §1

Experiment [5] addresses Phenylethanolamine N-methyltransferase (Homo sapiens) (UniProt P11086). The conditions noted are these: purified enzyme, MTase-Glo SAH luminescence; measured here: PNMT inhibition; at 40 µM; stronger effect = lower value. In a few lines: as §1
% is scaled to controls: 0 for no effect and ±100 for the full control effect.

For the molecule `CCNC1(C(N)=O)CCN(c2ncnc3c2nc(-c2ccccc2Cl)n3-c2ccc(Cl)cc2)CC1`, the activity change, negative = inhibition was -7.34% in experiment [1]; 12.9% in experiment [2]; -3.12% in experiment [3]; -34% in experiment [4]; -6.29% in experiment [5].

Take `CCc1ccc(CN2C(=O)c3cc(-c4ccc(OC)cc4)nn3CC2(C)C(=O)NCc2ccccc2OC)cc1` (stereo unspecified): the activity change, negative = inhibition was -6.4% in experiment [1]; -0.828% in experiment [2]; -6.99% in experiment [3]; -9.86% in experiment [4]; -4.41% in experiment [5].

Take `CC(C)=CCC[C@](C)(O[C@@H]1O[C@H](CO)[C@@H](O)[C@H](O)[C@H]1O)[C@H]1CC[C@]2(C)[C@@H]1[C@H](O)CC1[C@@]3(C)CC[C@H](O)C(C)(C)C3[C@@H](O[C@@H]3O[C@H](CO)[C@@H](O)[C@H](O)[C@H]3O[C@@H]3O[C@@H](C)[C@H](O)[C@@H](O)[C@H]3O)C[C@]12C` (stereo partly specified): the activity change, negative = inhibition in experiment [1] was 1.98%; in experiment [2] it was 1.42%; in experiment [3], 11.1%; in experiment [4], -13.8%; in experiment [5] it was -5.51%.

Regarding `O=C(c1ccc(F)c(F)c1Nc1ccc(I)cc1F)N1CC(O)([C@@H]2CCCCN2)C1`, the activity change, negative = inhibition is 4.99% in experiment [1]; 15.8% in experiment [2]; 11.9% in experiment [3]; -11.4% in experiment [4]; 2.9% in experiment [5].

`CCCn1c(=O)c2ccc(C(=O)NC(C)C)cc2n2c(=O)n(Cc3ccc(F)cc3Cl)nc12`: the activity change, negative = inhibition in experiment [1] is -2.31%; in experiment [2], 0.581%; in experiment [3] it was 5.79%; in experiment [4], -2.05%; in experiment [5] it was 4.95%.

`CCCn1c(=O)c2ccc(C(=O)NC3CCCC3)cc2n2c(=O)n(CC(=O)Nc3ccccc3F)nc12`: the activity change, negative = inhibition in experiment [1] was 5.27%; in experiment [2], 0%; in experiment [3], 12%; in experiment [4] it was -0.938%; in experiment [5], 5.84%.

Regarding `COc1ccccc1CN1CCC(CN(CC(C)C)C(=O)C2C=CCN2)CC1` (stereo unspecified), the activity change, negative = inhibition was -0.014% in experiment [1]; -0.115% in experiment [2]; -17.8% in experiment [3]; -3.28% in experiment [4]; 2.33% in experiment [5].

As for `CC1CCc2c(sc3nc(-c4cc5ccccc5oc4=O)nc(Cl)c23)C1` (stereo unspecified), the activity change, negative = inhibition was -6.8% in experiment [2], -17.4% in experiment [4] and -2.9% in experiment [5].

As to `COc1cc2nc(N3CCCN(C)CC3)nc(NC3CCN(Cc4ccccc4)CC3)c2cc1OC`, the activity change, negative = inhibition in experiment [1] is 4.82%; in experiment [2], 12.1%; in experiment [3] it was -67.6%; in experiment [4], -11.4%; in experiment [5], -1.7%.

Consider `COc1cc2nc(-c3cc4c(c(OC)c3)OCCNC4)cc(C)c2cc1OC`, for which the activity change, negative = inhibition is -7.6% in experiment [1]; -2.55% in experiment [2]; -9.95% in experiment [3]; -7.1% in experiment [4]; -22.6% in experiment [5].

`CN(Cc1noc(C2CCCC2)n1)c1cc(C2CC(O)C2)ncn1` (stereo unspecified): the activity change, negative = inhibition in experiment [1] was 1.05%; in experiment [2], 3.32%; in experiment [3], 3.31%; in experiment [4], -3.75%; in experiment [5] it was 1.34%.

For the molecule `COc1ccc(-c2nc3ccccc3[nH]2)cc1`, the activity change, negative = inhibition in experiment [1] is -73.1%; in experiment [2], -60.5%; in experiment [3] it was -71.7%; in experiment [4], -66.7%; in experiment [5] it was -76%.

Take `COC(=O)c1c(NC(=O)c2ccccc2)c2cc(NC3CCOCC3)cnc2n1CC1CCCO1` (stereo unspecified): the activity change, negative = inhibition is -2.09% in experiment [1]; 1.26% in experiment [2]; 2.33% in experiment [3]; 0.185% in experiment [4]; 4.45% in experiment [5].

In the case of `CCCn1c(=O)oc2cc(NS(=O)(=O)c3ccc4c(c3)n(C)c(=O)n4C)ccc21`, the activity change, negative = inhibition in experiment [1] was -9.09%; in experiment [2] it was 0.838%; in experiment [3], 14.1%; in experiment [4], -2.56%; in experiment [5] it was 7.47%.

On to `CC(=O)N1CCC(N[C@@H]2CO[C@H](CNC(=O)c3ccncc3)[C@H]2O)CC1`, for which the activity change, negative = inhibition is -3.04% in experiment [1]; -4.69% in experiment [2]; -0.362% in experiment [3]; -7.05% in experiment [4]; -3.65% in experiment [5].

Consider `Cc1nc(C)c(C(=O)N2CCC(C(=O)N3CCCCCCNC(=O)CC3)CC2)s1`, for which the activity change, negative = inhibition in experiment [1] is -10.6%; in experiment [2], -3.4%; in experiment [3], -2.48%; in experiment [4], -13.6%; in experiment [5], -24.9%.

As for `CCN1CCN(C(c2ccc(C)cc2)c2sc3nc(-c4ccco4)nn3c2O)CC1` (stereo unspecified), the activity change, negative = inhibition in experiment [2] is 1.01%; in experiment [4], -6.87%; in experiment [5] it was 6.73%.

As for `CC(=O)O[C@H]1CC[C@@]2(CI)C(=CC[C@@H]3[C@@H]2CC[C@]2(C)[C@@H]([C@H](C)CCCC(C)C)CC[C@@H]32)C1`, the activity change, negative = inhibition was 0.057% in experiment [1]; -5.05% in experiment [2]; 11.9% in experiment [3]; -8.96% in experiment [4]; 4.25% in experiment [5].

Turning to `Cn1c(=O)n(C)c2cc(S(=O)(=O)N3CCc4ccccc43)ccc21`, the activity change, negative = inhibition in experiment [1] was -4.22%; in experiment [2] it was -1.26%; in experiment [3], -6.45%; in experiment [4] it was -8.15%; in experiment [5], -6.26%.

As to `COc1ccc(CCC(=O)N2CCCC(n3cc(-c4nc(-c5ccccc5)no4)nn3)C2)cc1` (stereo unspecified), the activity change, negative = inhibition in experiment [1] is -8.91%; in experiment [2] it was -7.09%; in experiment [3] it was -4.03%; in experiment [4], -15.2%; in experiment [5] it was -9.8%.

As for `C[C@@H](c1ccccc1)N(C)C(=O)c1cc(COc2cccc(F)c2)[nH]n1`, the activity change, negative = inhibition in experiment [1] is -7.3%; in experiment [2], 0.459%; in experiment [3], -0.962%; in experiment [4], -8.14%; in experiment [5], -1.94%.

With `COc1ccc(CN2C(=O)c3cc4sccc4n3CC2(C(=O)NC2CCCCCCC2)c2ccccc2)cc1` (stereo unspecified), the activity change, negative = inhibition in experiment [1] is 0.39%; in experiment [2], 2.07%; in experiment [3], -1.23%; in experiment [4] it was -0.738%; in experiment [5], -3.43%.

On to `CC(CN1C(=O)c2cc3sccc3n2CC1(C)C(=O)NC1CCCCCC1)c1ccccc1` (stereo unspecified), for which the activity change, negative = inhibition in experiment [1] was -1.05%; in experiment [2], 4.6%; in experiment [3], 6.99%; in experiment [4], 2.24%; in experiment [5] it was -1.38%.

In the case of `Cn1c(=O)c2c(nc(/C=C/c3cccc(Cl)c3)n2C)n(C)c1=O`, the activity change, negative = inhibition is -12% in experiment [1]; 1.51% in experiment [2]; -4.27% in experiment [3]; -12.6% in experiment [4]; -0.3% in experiment [5].

`Cc1cc(C(=O)N2CCCCc3ccccc32)ccc1CNC(=O)N1CCC[C@H]1C(=O)N(C)C`: the activity change, negative = inhibition in experiment [1] was 6.45%; in experiment [2], -0.622%; in experiment [3], 2.66%; in experiment [4], -15.4%; in experiment [5], -3.61%.

As for `COc1cccc(CN2Cc3cc(NC(=O)Cc4cccs4)ccc3OCC2=O)c1OC`, the activity change, negative = inhibition in experiment [1] was -4.82%; in experiment [2], -0.42%; in experiment [3], -11.8%; in experiment [4], -13.5%; in experiment [5] it was 6.33%.

As to `Cn1c(=O)c2ccc(C(=O)NC3CCCCC3)cc2n2c(SCC(=O)c3ccc(F)cc3)nnc12`, the activity change, negative = inhibition in experiment [1] came to 1.82%; in experiment [2], 0%; in experiment [3], 1.29%; in experiment [4], 4.91%; in experiment [5] it was 6.1%.

As for `CCOc1ccc(CCNS(=O)(=O)c2ccc3[nH]c(=O)[nH]c3c2)cc1OCC`, the activity change, negative = inhibition in experiment [1] is 14.4%; in experiment [2], 1.84%; in experiment [3], 14.3%; in experiment [4] it was 5.61%; in experiment [5], 4.92%.
